The source of these data is PMC10668032.

The list shows a part of the results. At the low end of the ranking the order means little.

In the experiment the target is SIX1-Q177R homeodomain (UniProt Q15475). Nature of the experiment: universal protein binding microarray. The conditions noted are these: Universal all-10-mer PBM (8x60K, AMADID 030236), 300 nM GST-tagged protein, Alexa Fluor 488 anti-GST; buffer, salt, pH and temperature not stated; high values mean tight binding; most listed sequences are background and not binding sites; double strand, one strand shown.
CGGGGGAG: the binding signal worked out at 0.0729 E-score.

For GATTGCGA, the binding signal is -0.22 E-score. In the case of GCGTTGCC, the binding signal stood at 0.0164 E-score. Turning to TTCGCCAA, the binding signal is -0.0996 E-score. Turning to CTAAAATC, the binding signal is -0.204 E-score. AATAATGT: the binding signal was -0.0278 E-score.

Regarding CTGAGGCA, the binding signal was -0.203 E-score. With CCATGGTC the figure was -0.13 E-score.

Consider GCTGAACA, for which the binding signal was found to be 0.169 E-score. CAAAGCCA: the binding signal is 0.0553 E-score. AGTGGGCA: the binding signal is -0.313 E-score. For the sequence GATTTGAC, the binding signal came out at 0.0166 E-score. Consider TATTACCA, for which the binding signal is -0.118 E-score.

Take TATTGCCA: the binding signal was -0.131 E-score. With CAAAAAAG the figure was -0.0937 E-score; with CAGTATGG, -0.0566 E-score. On to CATGTCAG, for which the binding signal is 0.0142 E-score.

On to ATTTCGCA, for which the binding signal was -0.152 E-score.

In the case of ATCTTACG, the binding signal was -0.203 E-score.

Take CTATCAAG: the binding signal was -0.0881 E-score. The value for CATTCGAG was -0.109 E-score. With GGTCGCAA, the binding signal is -0.016 E-score. With AAATCCAT the figure was -0.151 E-score; with AAGAATAT, -0.329 E-score; with CCGGTCTC, 0.0177 E-score. With CGTAACTC the figure was 0.0681 E-score; with CCTGCAAA, -0.0958 E-score; with AGAATACG, 0.101 E-score.

On to CGAAGTGC, for which the binding signal was -0.164 E-score. With CGAAATTA, the binding signal is -0.221 E-score. Regarding CCGACCTC, the binding signal was 0.114 E-score. For the sequence ATAACTTG, the binding signal is -0.12 E-score.

Take GCCGGATA: the binding signal amounted to 0.0853 E-score. As to ACAACACT, the binding signal is 0.35 E-score. AACTGTCC: the binding signal is -0.266 E-score. Take AGAGCCTA: the binding signal is -0.198 E-score. Regarding ACATGGAC, the binding signal is -0.123 E-score. With GGTGCCGA the figure was 0.188 E-score. With ATCTCCTC, the binding signal was -0.1 E-score. ATGACTCG: the binding signal stood at 0.0804 E-score.

For the sequence GCCGACCA, the binding signal worked out at 0.047 E-score. The value for ATATTCGG was 0.00737 E-score. With ATTCTCCA the figure was -0.166 E-score; with CTTGCAAG, -0.235 E-score; with GTAGAGTA, 0.253 E-score. With CGCCCAAA, the binding signal is -0.224 E-score.

GGGCATTA: the binding signal is 0.0253 E-score. The value for GGGCGGCA was -0.0597 E-score; that for ACACGGGC was 0.424 E-score; that for GCCTGCGA was -0.241 E-score.

GGTTTGTA: the binding signal was 0.148 E-score. Take AGAGTGTC: the binding signal was determined as 0.412 E-score. The value for GATCTTCC was 0.0875 E-score; that for GTAAATAC was -0.0464 E-score. In the case of GGCTATAC, the binding signal was -0.0917 E-score. CGAGGCAG: the binding signal is -0.225 E-score. The value for CCCTAGGA was 0.0598 E-score. As to GCGAAACA, the binding signal amounted to 0.0471 E-score. As for ATTCATTG, the binding signal is -0.119 E-score. With CACTCCTG the figure was 0.335 E-score; with CTTGTGGC, -0.0678 E-score; with AACCGGGA, -0.0494 E-score.

As to CGGCCATA, the binding signal was -0.138 E-score. As to GGTGGCTA, the binding signal is -0.0164 E-score. On to GTTTTCAA, for which the binding signal was -0.0894 E-score. With ATTTGCAA, the binding signal is -0.291 E-score. For the sequence CACATGTA, the binding signal was -0.0412 E-score. On to AAGAGACC, for which the binding signal was 0.000615 E-score. For the sequence GCGTTGGA, the binding signal came out at 0.107 E-score. The value for AGCCTTTA was -0.167 E-score. For CTATGGGA, the binding signal was -0.083 E-score.

With ATGGGGAG, the binding signal was -0.0333 E-score. With GATTCGTA the figure was 0.0678 E-score. Turning to CCCTGTCA, the binding signal is 0.0397 E-score.

For TGGATTAA, the binding signal is -0.0619 E-score.

AGAGTTTC: the binding signal was -0.151 E-score. The value for CACGTAAC was 0.099 E-score. Turning to GGTAAAAC, the binding signal was 0.025 E-score.

On to ACGTCCCG, for which the binding signal was 0.0356 E-score. As for AACCCGGG, the binding signal was determined as 0.244 E-score. With CCCGTAGG the figure was 0.178 E-score.

As for ACGCGCGA, the binding signal was 0.0288 E-score. With ACGAGGCG the figure was 0.11 E-score; with CGGCGTCC, 0.0693 E-score.

Consider GAGGTGAA, for which the binding signal is -0.162 E-score. For the sequence ACCATGCG, the binding signal was -0.0152 E-score. The value for GAAGCTAA was -0.201 E-score; that for GCGTAGGA was 0.0884 E-score; that for CATGATAC was 0.287 E-score.

With AGAGGCTG, the binding signal is -0.0524 E-score. For the sequence CAAACTCG, the binding signal is -0.158 E-score.

As to CCTTTTCG, the binding signal is -0.183 E-score. The value for GGATGTCA was 0.0654 E-score; that for ATTTATCA was -0.16 E-score; that for CAGGGTAG was 0.0718 E-score. Regarding GCCCACCC, the binding signal came to 0.229 E-score.

Consider ACGATGAT, for which the binding signal was -0.0343 E-score. For the sequence AGATTCCG, the binding signal is -0.0149 E-score. Consider AGGCAAGA, for which the binding signal is -0.198 E-score. Take ATCAAGAT: the binding signal is -0.123 E-score. For the sequence GACATGCC, the binding signal was -0.0196 E-score. As to CAATCGTC, the binding signal is 0.104 E-score. Turning to ACGATGAA, the binding signal was -0.229 E-score. As for AAGTTTAC, the binding signal was -0.154 E-score. On to ACGAATTC, for which the binding signal was -0.116 E-score. With CTGGGACC the figure was -0.152 E-score; with CGATGACG, -0.147 E-score; with ACTCCCTC, 0.156 E-score. For CCGTTCAG, the binding signal was -0.2 E-score. Turning to CCGCCAAA, the binding signal is -0.13 E-score. Turning to AACTGTAA, the binding signal was -0.126 E-score. On to AAAGTTAC, for which the binding signal worked out at 0.00056 E-score. For GGGCAGGA, the binding signal stood at 0.135 E-score. For CCCCGGGA, the binding signal came out at 0.253 E-score. Take ATGAAAAA: the binding signal is -0.136 E-score. The value for AAACAGCT was -0.147 E-score; that for AAAGGCAT was -0.214 E-score; that for GGACCACA was -0.0544 E-score. The value for GGCACAAC was -0.0395 E-score; that for AGACAAAT was -0.185 E-score. With CAAGCAGC the figure was -0.194 E-score. AAGCCTGG: the binding signal was -0.236 E-score.

Take ACTTGGGG: the binding signal is -0.00376 E-score. Take ACATTCCC: the binding signal is -0.181 E-score. Take ATGTCACA: the binding signal is -0.00363 E-score. The value for GCTCTCCC was -0.147 E-score. Take ACGTTCAT: the binding signal is -0.0319 E-score. The value for AATTTAGA was -0.129 E-score; that for ACTTATGA was -0.134 E-score.

Consider CTCCAATC, for which the binding signal was -0.0901 E-score. Take ACGTATAG: the binding signal is -0.0737 E-score.

ATTAATCG: the binding signal was -0.152 E-score.

As to AGTGATGC, the binding signal was -0.157 E-score. As to ACTTGTCT, the binding signal is -0.168 E-score. On to GCGGGTAC, for which the binding signal was 0.201 E-score. For GGCACGTA, the binding signal is -0.0488 E-score. In the case of CAGCAAGG, the binding signal was 0.0406 E-score. Turning to GACATACC, the binding signal is -0.0901 E-score. In the case of CATTTGGG, the binding signal is -0.0114 E-score. As for AGAAATAA, the binding signal was -0.0682 E-score. For the sequence CTTTAGTC, the binding signal was -0.284 E-score.

Turning to AGCTGGCC, the binding signal is -0.211 E-score. As for ATGTGGCA, the binding signal is -0.0573 E-score. Take GCGTGGAC: the binding signal is -0.0167 E-score. With GAACCCTA the figure was 0.0421 E-score; with CAAGCTCG, -0.179 E-score; with AATCTTTG, -0.184 E-score. In the case of TGCGCACA, the binding signal was determined as 0.134 E-score. With CGGACGAC the figure was 0.152 E-score; with CTGCTCAC, 0.0583 E-score. With CAAACCCC the figure was 0.197 E-score; with ACTATCGG, -0.067 E-score; with ACTCCCAC, 0.0902 E-score. In the case of TCACCTGA, the binding signal came out at 0.0235 E-score. With CACAAGTA the figure was 0.0438 E-score; with TACGCGTA, 0.128 E-score; with CGTTGCCC, -0.246 E-score. The value for GAAGGCGC was -0.0589 E-score; that for GCTGACTA was -0.205 E-score; that for CTCTTAAG was -0.197 E-score.

On to ATAAGCTA, for which the binding signal is -0.159 E-score. For the sequence ATTCGACG, the binding signal was -0.0493 E-score. In the case of CTAATTGA, the binding signal is -0.0408 E-score. Turning to CAGAACAG, the binding signal came out at 0.0111 E-score. With ACATTCGG, the binding signal came out at 0.311 E-score. On to CCTGTCAG, for which the binding signal was -0.0895 E-score. As for CGTACAGC, the binding signal was -0.177 E-score. With CTCGTCGA, the binding signal is -0.24 E-score. CGCATTGC: the binding signal was 0.166 E-score. Turning to CGTACTCA, the binding signal is -0.0921 E-score.

ACGCGGAG: the binding signal was 0.0276 E-score. With AGAGCCTG the figure was -0.144 E-score.
